From the antibiotic and cytotoxicity screens of Wong et al. (2023) come the findings set out here.

One assay concerns HSkMC. As to the kind of experiment: cytotoxicity call (relative viability < 0.9). Particulars: 10 µM.
In another assay the test system is HepG2. Kind of assay: cytotoxicity call (relative viability < 0.9). Particulars: 10 µM.
In a further assay the test system is S. aureus RN4220. Kind of assay: growth inhibition call (relative growth <= 0.2). The settings on record: 50 µM.

The other results are listed elsewhere or left out.

On to `COc1ccc(CN(C)C[C@H]2Oc3ccc(NS(C)(=O)=O)cc3C(=O)N([C@H](C)CO)C[C@@H]2C)cc1`, for which the cytotoxicity call in the assay on HSkMC and with HepG2 was “inactive” each time. In the assay with S. aureus RN4220, the growth inhibition call was “inactive”.
Take `CCn1c(C)cn2c3c(=O)n(CCN4CCOCC4)c(=O)n(C)c3nc12`: the cytotoxicity call in the assay on HSkMC and in the assay on HepG2 was “inactive” in each case. Moreover, in the assay with S. aureus RN4220, the growth inhibition call is “inactive”.
Consider `CCCc1cc(=O)oc2cc3occ(-c4ccccc4)c3cc12`, for which the cytotoxicity call with HSkMC and with HepG2 was “inactive” throughout. In addition, in the assay on S. aureus RN4220, the growth inhibition call was “inactive”.
In the case of `O=C1NC(=O)[C@@]2(CC[C@H](C(=O)O)C2)N1`, the cytotoxicity call in the assay on HSkMC and with HepG2 was “inactive” in each case. Also, in the assay on S. aureus RN4220, the growth inhibition call is “inactive”.
In the case of `O=C(C[C@@H]1C[C@@H]2c3cc(NS(=O)(=O)c4ccc(F)cc4)ccc3O[C@@H]2[C@@H](CO)O1)N1CCCCC1`, the cytotoxicity call in the assay with HSkMC and with HepG2 was “inactive” each time. In addition, the growth inhibition call in the assay with S. aureus RN4220 is “inactive”.
In the case of `CCC(=O)N(C)C[C@H]1Oc2ncc(C#C[C@H](C)O)cc2C(=O)N([C@@H](C)CO)C[C@H]1C`, the cytotoxicity call with HSkMC and with HepG2 was “inactive” each time. For the same compound, the growth inhibition call with S. aureus RN4220 is “inactive”.
Turning to `COc1ccc(S(=O)(=O)N(C)C[C@@H]2Oc3ccc(NS(=O)(=O)c4ccc(F)cc4)cc3C(=O)N([C@@H](C)CO)C[C@H]2C)cc1`, the cytotoxicity call in the assay with HSkMC and with HepG2 was “inactive” throughout. Further, the growth inhibition call in the assay with S. aureus RN4220 was “inactive”.
`C[C@@H]1CN([C@@H](C)CO)C(=O)c2cc(C3=CCCC3)cnc2O[C@@H]1CN(C)C(=O)Nc1ccc(C(F)(F)F)cc1`: the cytotoxicity call in the assay with HSkMC and in the assay on HepG2 was “inactive” in each case. In the assay with S. aureus RN4220, the growth inhibition call is “inactive”.
`COc1ccc2c3c(n(c2c1)C)[C@H](CO)N(C[C@]13CN(C1)C(=O)c1ccncc1)C(=O)C1CCOCC1`: the cytotoxicity call in the assay with HSkMC and in the assay on HepG2 was “inactive” throughout. Further, the growth inhibition call in the assay with S. aureus RN4220 is “inactive”.
Take `CS(=O)(=O)N1CCN2C[C@H](C(=O)O)CN(Cc3ccco3)C[C@@H]2C1`: the cytotoxicity call in the assay on HSkMC and in the assay on HepG2 was “inactive” throughout. In the assay with S. aureus RN4220, the growth inhibition call was “inactive”.
Consider `C[C@@H]1CN([C@H](C)CO)C(=O)c2cc(NS(C)(=O)=O)ccc2O[C@H]1CN(C)S(=O)(=O)c1ccc(F)cc1`, for which the cytotoxicity call in the assay with HSkMC and in the assay on HepG2 was “inactive” each time. In addition, the growth inhibition call in the assay on S. aureus RN4220 is “inactive”.
Regarding `NCC1CCN(Cc2ccccc2)CC1`, the cytotoxicity call in the assay on HSkMC and with HepG2 was “inactive” throughout. Moreover, in the assay on S. aureus RN4220, the growth inhibition call is “inactive”.
As for `C[C@@H]1CCCCO[C@@H](CN(C)C(=O)Nc2ccc(F)cc2)[C@@H](C)CN([C@H](C)CO)C(=O)c2cc(NC(=O)CCCN(C)C)ccc2O1`, the cytotoxicity call in the assay with HSkMC and in the assay on HepG2 was “inactive” throughout. Further, in the assay on S. aureus RN4220, the growth inhibition call was “inactive”.
Take `CN1CCN(C(=O)C[C@H]2CC[C@H]3[C@@H](COC[C@H](O)CN3C(=O)C3CCCC3)O2)CC1`: the cytotoxicity call in the assay on HSkMC and with HepG2 was “inactive” in each case. In addition, in the assay on S. aureus RN4220, the growth inhibition call is “inactive”.
On to `NCC[C@@H]1CC[C@@H](NC(=O)Cc2ccncc2)[C@@H](CO)O1`, for which the cytotoxicity call in the assay with HSkMC and in the assay with HepG2 was “inactive” each time. For the same compound, in the assay with S. aureus RN4220, the growth inhibition call was “inactive”.
With `CCCNC(=O)N1C[C@H](O)COC[C@@H]2O[C@@H](CC(=O)NCc3ccncn3)CC[C@H]21`, the cytotoxicity call in the assay on HSkMC and in the assay with HepG2 was “inactive” each time. The growth inhibition call with S. aureus RN4220 is “inactive”.
Consider `CCN1C[C@]23CN(C(=O)c4ccn[nH]4)C[C@@H](C[C@H]2S1(=O)=O)O3`, for which the cytotoxicity call with HSkMC and in the assay on HepG2 was “inactive” each time. The growth inhibition call in the assay with S. aureus RN4220 is “inactive”.
With `C[C@H]1CN([C@@H](C)CO)C(=O)Cc2cc(NS(=O)(=O)c3cccs3)ccc2O[C@@H]1CN(C)Cc1ccc(Cl)c(Cl)c1`, the cytotoxicity call in the assay on HSkMC (human skeletal muscle cells) and in the assay on HepG2 was “inactive” throughout. The growth inhibition call in the assay with S. aureus RN4220 is “inactive”.
Consider `C=CCNC(=O)[C@H]1[C@@H]2C(=O)O[C@@H](c3ccccc3)[C@@H](c3ccccc3)N2[C@@H](c2ccc(OCCO)cc2)[C@]12C(=O)Nc1ccc(C#CC3=CCCCC3)cc12`, for which the cytotoxicity call in the assay with HSkMC and in the assay with HepG2 was “inactive” throughout. In addition, the growth inhibition call in the assay on S. aureus RN4220 is “inactive”.
`C[C@@H]1CCCCO[C@H](CN(C)C(=O)Nc2ccc(C(F)(F)F)cc2)[C@@H](C)CN([C@H](C)CO)C(=O)c2cc(NC(=O)c3ccccc3)ccc2O1`: the cytotoxicity call in the assay with HSkMC and with HepG2 was “inactive” throughout. Moreover, the growth inhibition call with S. aureus RN4220 was “inactive”.
Regarding `Cc1noc(C)c1NC(=O)Nc1ccc2c(c1)C(=O)N([C@@H](C)CO)C[C@H](C)[C@H](CN(C)Cc1ccc(Cl)c(Cl)c1)O2`, the cytotoxicity call in the assay with HSkMC and with HepG2 was “inactive” in each case. The growth inhibition call in the assay with S. aureus RN4220 is “inactive”.
Consider `C[C@H]1CN([C@@H](C)CO)S(=O)(=O)c2ccc(C#CCN(C)C)cc2O[C@@H]1CN(C)S(C)(=O)=O`, for which the cytotoxicity call with HSkMC and with HepG2 was “inactive” in each case. In addition, the growth inhibition call with S. aureus RN4220 is “inactive”.
With `C[C@@H]1CN([C@H](C)CO)S(=O)(=O)c2ccc(C3=CCCC3)cc2O[C@H]1CN(C)S(=O)(=O)c1cn(C)cn1`, the cytotoxicity call with HSkMC and with HepG2 was “inactive” throughout. Further, the growth inhibition call with S. aureus RN4220 was “inactive”.
As for `Cc1noc(C)c1S(=O)(=O)Nc1ccc2c(c1)CC(=O)N([C@H](C)CO)C[C@H](C)[C@@H](CN(C)Cc1ccc(-c3ccccc3)cc1)O2`, the cytotoxicity call in the assay with HSkMC and with HepG2 was “active” throughout. In the assay on S. aureus RN4220, the growth inhibition call is “inactive”.
Consider `COC(=O)c1cn(-c2cccc(N)c2)nn1`, for which the cytotoxicity call with HSkMC and in the assay with HepG2 was “inactive” throughout. In addition, the growth inhibition call in the assay on S. aureus RN4220 is “inactive”.
On to `CO[C@H](CN(C)C(=O)c1ccc2c(c1)OCO2)[C@@H](C)CN([C@@H](C)CO)S(=O)(=O)c1ccc(C)cc1`, for which the cytotoxicity call with HSkMC and with HepG2 was “inactive” each time. Further, in the assay with S. aureus RN4220, the growth inhibition call is “inactive”.
As to `Cc1noc(C)c1NC(=O)N(C)C[C@@H]1OCCCC[C@H](C)Oc2ccc(NC(=O)CCC(F)(F)F)cc2C(=O)N([C@@H](C)CO)C[C@@H]1C`, the cytotoxicity call in the assay with HSkMC and with HepG2 was “inactive” each time. Also, the growth inhibition call with S. aureus RN4220 was “inactive”.
As for `CC(=O)N1CCOC[C@@]2(C1)CN(S(C)(=O)=O)CCO2`, the cytotoxicity call in the assay with HSkMC and in the assay with HepG2 was “inactive” each time. Moreover, in the assay on S. aureus RN4220, the growth inhibition call was “inactive”.
Consider `COc1ccc(NC(=O)Nc2ccc3c(c2)C(=O)N([C@@H](C)CO)C[C@H](C)[C@@H](CN(C)S(=O)(=O)c2c(C)noc2C)OCCCC[C@H](C)O3)cc1`, for which the cytotoxicity call with HSkMC and in the assay on HepG2 was “inactive” each time. The growth inhibition call in the assay on S. aureus RN4220 was “inactive”.
With `C[C@@H]1CN([C@H](C)CO)C(=O)c2cc(C#CCN(C)C)cnc2O[C@H]1CN(C)C(=O)c1ccc2c(c1)OCO2`, the cytotoxicity call with HSkMC and in the assay on HepG2 was “inactive” throughout. Moreover, in the assay on S. aureus RN4220, the growth inhibition call is “inactive”.
